{
  "source": "PubChem BioAssay AID1030",
  "about": "(National Center for Advancing Translational Sciences (NCATS), 2008)",
  "note": "Hit rate of the full screen: of about 220,000 compounds, about 16,000 (7.3%) were called active. Inconclusive means that the source gave no clear call. Such entries were picked first, then a sample of the others. Calls follow the shape of the dose curve; as a rule, active = well fitted inhibition curve with a large enough effect (not every such curve was filed as active); inconclusive = small, poorly fitted or top-dose-only effect, or another doubt; inactive = no such curve, though single readings can be large or run the other way. Potencies of inconclusive entries are left out as doubtful fits. Potency is read from the fitted curve at half-maximal effect; tags tell the direction and shape of the fitted curve.",
  "data": [
    {"molecular_target": "Aldehyde dehydrogenase 1A1 (Homo sapiens) (UniProt P00352)", "sequence (P00352 whole entry, looked up)": "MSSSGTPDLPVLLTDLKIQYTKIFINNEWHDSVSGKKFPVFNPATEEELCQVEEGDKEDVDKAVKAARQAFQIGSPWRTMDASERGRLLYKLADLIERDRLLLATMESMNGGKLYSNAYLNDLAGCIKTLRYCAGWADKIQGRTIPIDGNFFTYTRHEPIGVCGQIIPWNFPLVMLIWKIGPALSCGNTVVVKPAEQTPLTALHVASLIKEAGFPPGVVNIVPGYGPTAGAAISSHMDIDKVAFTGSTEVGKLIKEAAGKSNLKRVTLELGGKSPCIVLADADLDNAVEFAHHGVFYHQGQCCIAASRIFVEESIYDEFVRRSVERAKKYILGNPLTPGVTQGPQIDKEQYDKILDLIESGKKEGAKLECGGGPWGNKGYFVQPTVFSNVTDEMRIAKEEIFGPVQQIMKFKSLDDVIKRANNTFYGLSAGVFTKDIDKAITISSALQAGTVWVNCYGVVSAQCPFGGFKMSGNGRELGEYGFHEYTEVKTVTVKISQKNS", "assay": "qHTS Assay for Inhibitors of Aldehyde Dehydrogenase 1 (ALDH1A1);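 as to activity, negative = inhibition: plate controls were no enzyme wells and a reference inhibitor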", "conditions": "Purified ALDH1A1, NADH fluorescence, propionaldehyde substrate; series mostly up to 75.3 µM", "values": [
      {"smiles": "CCC(=O)Nc1ccc(NC(=S)Nc2ccccc2)cc1", "Potency": "inconclusive [inhibitor, single point]"},
      {"smiles": "Cn1c2ccccc2c(=O)c2c(=O)n(C3CCCCC3)c(-c3cccs3)nc21", "Potency": "inactive"},
      {"smiles": "O=C1NC(=O)/C(=C\\c2ccc(N3CCOCC3)o2)N1", "Potency": "inconclusive [inhibitor, single point]"},
      {"smiles": "c1cncc(CNc2cc(-c3ccoc3)ncn2)c1", "Potency": "inconclusive [inhibitor, single point]"},
      {"smiles": "CC1(C)CC(=O)C2=C(C1)OC(c1ccncc1)C(C#N)=C2N", "note": "(stereo unspecified)", "Potency": "inconclusive [inhibitor, partial curve]"},
      {"smiles": "CCOc1ccc(Cc2noc3c2C(=O)CC(C)(C)C3)cc1OCC", "Potency": "active: 11.2 µM"},
      {"smiles": "Cc1ccc2nc(NCCO)nc(-c3ccccc3)c2c1", "Potency": "inconclusive [inhibitor, single point]"},
      {"smiles": "COc1ccc2nc(SCC(N)=O)[nH]c2c1", "Potency": "inactive"},
      {"smiles": "COCCn1c(=N)c(C(=O)NCc2ccco2)cc2c(=O)n3cc(C)ccc3nc21", "Potency": "inconclusive [inhibitor, partial curve]"},
      {"smiles": "COC(=O)c1ccc(-n2c(C)cc(C(=O)CCl)c2C)cc1", "Potency": "active: 0.447 µM"},
      {"smiles": "COc1ccc(-c2nc3cnc(N4CCN(C)CC4)nc3n(C)c2=O)cc1", "Potency": "inconclusive [inhibitor, partial curve]"},
      {"smiles": "CCCCNCC#CCOc1cc(C)ccc1C(C)C", "Potency": "inconclusive [inhibitor, single point]"},
      {"smiles": "O=C(Cc1ccccc1)NC(NCCCN1CCOCC1)(C(F)(F)F)C(F)(F)F", "Potency": "inactive"},
      {"smiles": "Cc1ccc(S(=O)(=O)NCC23C=CC(O2)C2C(=O)N(c4ccccc4)C(=O)C23)cc1", "note": "(stereo unspecified)", "Potency": "active: 3.55 µM"},
      {"smiles": "Cc1[nH][nH]c(=O)c1C(c1ccc(-c2ccc(Cl)c(C(=O)O)c2)o1)c1c(C)[nH][nH]c1=O", "Potency": "active: 10 µM"},
      {"smiles": "CSc1ccccc1-c1nnc(-c2ccc(Cl)cc2Cl)o1", "Potency": "inconclusive [inhibitor, partial curve]"},
      {"smiles": "CC1(C(=O)NC(=S)N(CCC#N)Cc2cccnc2)CC1(Cl)Cl", "note": "(stereo unspecified)", "Potency": "inconclusive [inhibitor, single point]"},
      {"smiles": "O=C(CN1CCCCCC1)Nc1ccccc1F", "Potency": "inconclusive [inhibitor, single point]"},
      {"smiles": "COc1ccccc1CCc1nnc(CCC(=O)NCC[C@@H]2C[C@@H]3C=C[C@H]2C3)o1", "Potency": "inconclusive [inhibitor, single point]"},
      {"smiles": "CCOC(=O)C1=C(N)OC2=C(C(=O)CC(C)(C)C2)C1c1ccoc1", "note": "(stereo unspecified)", "Potency": "active: 25.1 µM"},
      {"smiles": "Oc1ccc(-c2nc(=S)[nH][nH]2)cc1", "Potency": "inconclusive [inhibitor, single point]"},
      {"smiles": "C=CCOc1ccc(C2N3CC4(CC)CN2CC(CC)(C3)C4=O)cc1", "note": "(stereo unspecified)", "Potency": "inconclusive [inhibitor, single point]"},
      {"smiles": "N#CCCn1cc(/C=N/O)c(-c2ccccc2)n1", "Potency": "inconclusive [inhibitor, partial curve]"},
      {"smiles": "CN(CCO)S(=O)(=O)c1ccc2c(c1)C(=NO)c1cc(S(=O)(=O)N(C)CCO)ccc1-2", "Potency": "inconclusive [inhibitor, single point]"},
      {"smiles": "COc1ccc(OC)c(N2C(=O)CC(Cc3ccc(C)cc3)C2=O)c1", "note": "(stereo unspecified)", "Potency": "inconclusive [inhibitor, partial curve, poor fit]"},
      {"smiles": "Cc1ccccc1N=C1NC(=O)/C(=C/c2cccn2-c2cccc(C(=O)O)c2)S1", "Potency": "inactive"},
      {"smiles": "O=S(=O)(c1ccccc1)N(CC(O)CN1CCCCC1)c1ccccc1", "note": "(stereo unspecified)", "Potency": "inconclusive [inhibitor, single point]"},
      {"smiles": "Cc1ccc(OCCC(=O)OCC(=O)Nc2cc(S(=O)(=O)N(C)C)ccc2C)cc1", "Potency": "active: 3.98 µM"},
      {"smiles": "CCOC(=O)c1sc2nc(C3CC3)cc(-c3ccc(OC)cc3)c2c1N", "Potency": "inconclusive [inhibitor, single point]"},
      {"smiles": "C[C@H]1Cc2c(-c3ccccc3)nc3c(c2CO1)CN(C(=O)NCCc1c[nH]c2ccccc12)CC3", "activity, negative = inhibition": "inactive: 11.5% [at 13.5 µM]"},
      {"smiles": "Cc1ccc(NC(=O)COC(=O)C2(c3ccc(Cl)cc3)CCCC2)cc1", "Potency": "active: 10 µM"},
      {"smiles": "Cc1cccc2cc(C#N)c(N3CCC(O)CC3)nc12", "Potency": "inconclusive [inhibitor, single point]"},
      {"smiles": "O=C(CSc1ccc2nnc(CCNS(=O)(=O)c3ccccc3)n2n1)Nc1nc2ccccc2s1", "Potency": "active: 25.1 µM"},
      {"smiles": "CCNc1ncc2nc(CCc3ccccc3)c(=O)n(-c3ccc(OC)cc3)c2n1", "Potency": "inconclusive [inhibitor, single point]"},
      {"smiles": "O=C(NNC(=S)Nc1ccccc1C(F)(F)F)c1ccc(Br)o1", "Potency": "inconclusive [inhibitor, single point]"},
      {"smiles": "O=C(Nc1cc(S(=O)(=O)N2CCOCC2)ccc1N1CCOCC1)C1CCCO1", "note": "(stereo unspecified)", "Potency": "inactive"},
      {"smiles": "Cc1cc2nnc(SC(C)C#N)n2c2ccccc12", "note": "(stereo unspecified)", "Potency": "inconclusive [inhibitor, single point]"},
      {"smiles": "COc1cc(CNCCc2c[nH]c3ccccc23)cc(Cl)c1OCC(N)=O", "Potency": "active: 15.8 µM"},
      {"smiles": "Cc1ccc(-n2c3nc(=O)[nH]c(=O)c-3cc3c(C)nn(-c4ccccc4)c32)c(C)c1", "Potency": "inconclusive [inhibitor, partial curve]"},
      {"smiles": "COC(=O)[C@@H](NC(=O)NCc1cccc(OC)c1)C(C)C", "Potency": "active: 10 µM"},
      {"smiles": "CC(C)OC(=O)c1cc(C(=O)c2cc(F)ccc2O)coc1=N", "Potency": "inconclusive [inhibitor, partial curve]"},
      {"smiles": "CC1(C)CN(c2ccccc2)N(Cc2ccc(F)cc2)C1=O", "Potency": "inactive"},
      {"smiles": "CS(=O)(=O)NC1c2cccc3cccc(c23)C1N1CCOCC1", "note": "(stereo unspecified)", "Potency": "inconclusive [inhibitor, single point]"},
      {"smiles": "Cc1onc(-c2ccccc2)c1C(=O)N1CC(C)OC(C)C1", "note": "(stereo unspecified)", "Potency": "inactive"},
      {"smiles": "O=C(c1cn(-c2ccccc2)nc1-c1ccccc1)n1nnc2ccccc21", "Potency": "inconclusive [inhibitor, single point]"},
      {"smiles": "CCOC(=O)c1ccc(NC(=S)NCCCN2CCCC2=O)cc1", "Potency": "active: 0.0316 µM"}
    ]}
  ]
}
